According to paper PMC4336329 (PLoS ONE, 2015):
Among all 310,000 compounds or so, about 2,200 (0.71%) showed an effect of 50% or more. Effects have a minus sign here. Some of the results follow.

What follows are molecules tested against human ether-à-go-go-related gene (hERG) potassium channel (human, UniProt Q12809) (assay: primary screen, population patch clamp on CHO cells stably expressing hERG).
human ether-à-go-go-related gene (hERG) potassium channel, sequence (Q12809 whole entry, looked up): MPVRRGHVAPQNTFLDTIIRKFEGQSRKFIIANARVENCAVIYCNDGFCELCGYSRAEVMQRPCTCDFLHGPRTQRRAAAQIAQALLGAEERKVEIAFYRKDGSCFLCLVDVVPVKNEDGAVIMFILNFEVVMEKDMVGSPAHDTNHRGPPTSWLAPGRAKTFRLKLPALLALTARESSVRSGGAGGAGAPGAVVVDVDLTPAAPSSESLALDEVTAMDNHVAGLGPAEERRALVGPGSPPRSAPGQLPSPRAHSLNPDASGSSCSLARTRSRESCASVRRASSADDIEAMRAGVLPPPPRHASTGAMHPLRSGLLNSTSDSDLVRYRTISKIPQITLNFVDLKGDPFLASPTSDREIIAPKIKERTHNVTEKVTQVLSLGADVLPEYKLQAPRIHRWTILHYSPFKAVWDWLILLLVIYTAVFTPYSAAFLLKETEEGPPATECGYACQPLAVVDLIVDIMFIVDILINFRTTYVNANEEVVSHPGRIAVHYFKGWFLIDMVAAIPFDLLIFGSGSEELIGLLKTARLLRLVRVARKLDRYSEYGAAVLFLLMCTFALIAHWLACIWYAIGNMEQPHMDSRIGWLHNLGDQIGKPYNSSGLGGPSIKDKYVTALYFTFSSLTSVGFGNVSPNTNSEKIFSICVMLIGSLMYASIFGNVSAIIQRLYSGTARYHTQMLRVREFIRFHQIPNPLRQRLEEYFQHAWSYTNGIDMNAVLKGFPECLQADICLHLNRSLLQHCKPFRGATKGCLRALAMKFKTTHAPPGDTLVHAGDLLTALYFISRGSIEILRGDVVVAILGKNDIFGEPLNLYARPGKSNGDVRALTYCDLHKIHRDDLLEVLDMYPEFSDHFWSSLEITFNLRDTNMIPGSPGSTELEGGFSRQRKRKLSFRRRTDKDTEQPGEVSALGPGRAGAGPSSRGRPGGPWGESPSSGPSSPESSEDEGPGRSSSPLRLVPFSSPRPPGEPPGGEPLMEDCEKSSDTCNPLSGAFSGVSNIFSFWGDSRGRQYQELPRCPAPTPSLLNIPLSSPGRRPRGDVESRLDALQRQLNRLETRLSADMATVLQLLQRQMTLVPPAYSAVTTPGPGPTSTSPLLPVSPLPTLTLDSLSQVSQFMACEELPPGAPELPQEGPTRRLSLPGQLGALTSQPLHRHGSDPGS

Compound | hERG current change (%, negative = inhibition) at 1uM [%]
COc1ccc([N+](=O)[O-])cc1NCc1ccccc1C | -5.52
Cc1ccc(NC(=O)CSc2nc3ccccc3c3nc4ccccc4n23)cc1 | 6.56
CN(C)c1ccc(-c2noc(C3CCN(S(=O)(=O)c4cccc(Cl)c4)CC3)n2)cc1 | 14.5
CCCc1nnc(NC(=O)CCC(=O)N2CCN(Cc3cc(F)ccc3OC)CC2)s1 | 16.7
COc1cc([C@@H]2c3cc4c(cc3[C@@H](OC)[C@H]3COC(=O)[C@H]23)OCO4)cc(OC)c1O | 12.2
O=C(Nc1ccc(F)cc1F)c1cccnc1Oc1cccc(C(F)(F)F)c1 | 6.26
CCN(CC)CC(C)OC(=O)COc1ccc(OC)cc1.Cl (stereo not shown) | 10.2
CCOc1ccc(-c2c(C)n(-c3ccc(OCC)cc3)c3[n+]2CCCCC3)cc1.[O-][Cl+3]([O-])([O-])[O-] | -50.8
CCC(C)(NC=O)C(=O)Nc1c(C)cccc1C (stereo not shown) | 11.5
CCSc1nnc(NC(=O)C2Cc3ccccc3CN2S(=O)(=O)CC)s1 (stereo not shown) | 11.3
O=C1/C(=C/c2ccc(O)cc2)SC(=S)N1Cc1cccnc1 | 15.1
O=C(c1cccn2c(=O)c3ccccc3nc12)N1CCN(c2ccccn2)CC1 | -33.3
O=C(NC1CCCCC1)C1CN(S(=O)(=O)c2ccccc2)CCN1S(=O)(=O)c1ccccc1 (stereo not shown) | -2.07
CN(Cc1ccccc1)C(=O)CN1C(=O)c2ccc([N+](=O)[O-])cc2C1=O | 2.31
O=C(N/N=C/c1c[nH]c2ccccc12)c1ccn(Cc2ccc(Cl)cc2)n1 | 13
Nc1c(N(CCO)C(=O)/C=C/c2ccco2)c(=O)[nH]c(=O)n1Cc1ccccc1 | 12.4
Cc1cccc(C)c1Nc1nnc(SCc2cc([N+](=O)[O-])cc3c2OCOC3)s1 | 5.81
Cn1c(=O)c(C(=O)Nc2ncccc2O)c(O)c2ccccc21 | 5.05
COc1ccc(C(=O)NCCCN2CCCC2=O)cc1 | 9.52
Cc1scc(C(=O)N/N=C/c2ccc([N+](=O)[O-])o2)c1C | 7.51
Cc1ccccc1NC(=O)N1CCCC1C(=O)NCc1cccs1 (stereo not shown) | -3.89
CC(=O)Nc1ccc(N2C(C(C)=O)=NN(c3ccccc3)C2c2cccs2)cc1 (stereo not shown) | 15.6
COc1ccc(NC(=O)N2CCC3(CC2)OCCO3)cc1OC | 12.3
Cc1csc(NC(=O)c2ccc(S(=O)(=O)N3CCCC3)cc2)n1 | 5.64
COc1ccc(-n2c(SCC(=O)O)nc3sc4c(c3c2=O)CCC4)cc1 | 17.6
CCNS(=O)(=O)c1ccc(NC(=O)Nc2cccc(OC)c2)cc1 | 13.1
CC1=CC(C)(C)Nc2ccc(OC(=O)CCN3C(=O)c4ccccc4C3=O)cc21 | 5.52
COc1cc(C(=O)OC(C)CN2CCN(C)CC2)cc(OC)c1OC.Cl (stereo not shown) | 3.84

Compound | hERG current change (%, negative = inhibition) at 1uM [%]
Cc1ccc(F)c(CNC(=O)C2CCC(=O)N(CCCN3CCCC3=O)C2)c1F (stereo not shown) | 12.8
C=CCn1c(CCNC(=O)c2cccs2)nnc1SCC(=O)c1ccc(Cl)cc1 | -10
COc1ccc(CN(C(=O)CNC(=O)c2ccco2)C(C(=O)NCC2CCCO2)c2ccccc2)cc1 (stereo not shown) | 3.25
CCOC(=O)c1sc(NC(=O)C2CC(=O)N(c3ccccc3C)C2)nc1C (stereo not shown) | 8.08
N#CCC(=O)Nc1ccc(C(F)(F)F)cc1N1CCOCC1 | 4.03
N=c1c2c3c(sc2ncn1Cc1ccco1)CCCCC3 | 2.19
COc1cccc(CN2CCN(C(=O)C3CCC(=O)N(C4CCCC4)C3)CC2)c1 (stereo not shown) | 5.03
CC(C)(C)OC(=O)NCC1CCN(S(=O)(=O)Cc2ccccc2)CC1 | 16.1
Cc1ccc(S(=O)(=O)NCCCCCC(=O)Nc2c(C)n(C)n(-c3ccccc3)c2=O)cc1 | 27.4
Cc1snc(S(=O)(=O)/C(C#N)=N\Nc2ccccc2)c1C#N | 11
CCOc1ccc(CN(C)CC(=O)NCc2ccc(F)cc2)cc1 | -78.6
CCc1ccccc1N1C(=O)[C@@H]2Cc3ccccc3CN2C1=O | 6.47
Cc1cc2nc(N)sc2cc1[N+](=O)[O-] | 3.97
O=C1CC2(CCCC2)Oc2ccccc21 | 9.1
CCOC(=O)c1[nH]c2ccccc2c1NC(=O)c1ccc(S(=O)(=O)N2CCCCC2)cc1 | 8.49
COc1cccc(-c2nc(C(=O)NCC3CCCO3)cc3c2[nH]c2ccccc23)c1 (stereo not shown) | -18.9
Cc1ccc(S(=O)(=O)NC(C)(C)CSc2ccccn2)cc1 | 2.69
COc1ccc(CNC(=O)Cn2ccc3cc(S(=O)(=O)N4CCCC4)ccc32)cc1OC | 8.33
Cc1ccc(C2C(C#N)=C(N)OC3=C2C(=O)CC(C)(C)C3)s1 (stereo not shown) | 10.8
O=C(Nc1ccc(F)cc1)c1cccc(N2C(=O)c3ccccc3C2=O)c1 | 7.95
COc1ccc(-c2cc(C(=O)NC3CCCCC3)no2)cc1OC | 14.4
Cc1ccc(N2CC(C(=O)OCC(=O)Nc3ccccc3F)CC2=O)cc1 (stereo not shown) | 15.6
COc1ccc(CN2CCNC(=O)C2CC(=O)O)cc1OC (stereo not shown) | 17.6
Cc1ccc(-n2nc3cc(Cl)c(NC(=O)c4ccco4)cc3n2)cc1 | 9.71
Fc1ccc(C2CC(c3ccc(F)cc3)n3ncnc3N2)cc1 (stereo not shown) | -9.77
CCn1nc(C(=O)N2CCN(Cc3nc4ccccc4s3)CC2)c2ccccc2c1=O | -38.6
CC1CN(S(=O)(=O)c2ccc(C(=O)N3c4ccccc4CC3C)cc2)CC(C)O1 (stereo not shown) | 7.9
